Laboratory results from the supplement of paper PMC10126150.
Values marked as one replicate rest on one cluster of the flow cell; about a third of the high ones do not repeat.

Tested on: ATP
Assay: switch fluorescence ratio, 500 uM ATP over buffer (Cy3 cluster intensity, sum of 5 cycles each) (fold (ratio)); higher = stronger signal-on switching upon ATP binding; sequences stand for … in TCGTCGGCAGCGTCAGATGTGTATAAGAGACAGTTTTTTTTTTTTTTTTTTTTTTTTT…TC
Details: aptamer strand: ATP DNA aptamer (quencher-CACCTGGGGGAGTATTGCGGAGGAAGG + anchor), 100 nM annealed; ATP concentration: 500 uM; one replicate
How it was run: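 Five buffer/ATP imaging cycles were run on Cy3-labelled switching-strand clusters on a modified Illumina MiSeq flow-cell, with NaOH stripping and re-annealing between cycles. In each cycle, clusters annealed to 100 nM quencher-labelled ATP aptamer were imaged in selection buffer, then after 15 min with 500 uM ATP at 22 °C. Per cluster, the fluorescence ratio is summed target-cycle over summed buffer-cycle Cy3 intensity, averaged per switch-domain sequence. Only clusters within 100-1000 RFU were kept.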
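Further: ATP exposure 15 min at 22 °C before imaging.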

**Q.** With ATGGTCAATG as the sequence, how does the switch fluorescence ratio read?
**A.** 0.98

**Q.** For ATGGTCACTT, which switch fluorescence ratio is on record?
**A.** 0.999

**Q.** With ATGGTGATA as the sequence, how does the switch fluorescence ratio read?
**A.** 0.992

**Q.** For ATGGTGCGAT, which switch fluorescence ratio is on record?
**A.** 0.97

**Q.** For ATGGTGGAAC, which switch fluorescence ratio is on record?
**A.** 0.983

**Q.** With ATGGTGGAAT as the sequence, how does the switch fluorescence ratio read?
**A.** 0.97

**Q.** Which switch fluorescence ratio does the source give for ATGGTGGTAG here?
**A.** 1.03

**Q.** How did the switch fluorescence ratio turn out when ATGGTTCTAG was run?
**A.** 0.982

**Q.** For ATGGTTGACT, which switch fluorescence ratio is on record?
**A.** 1.01

**Q.** ATGGTTGTT was tested. Which switch fluorescence ratio did it give?
**A.** 1.04

**Q.** How did the switch fluorescence ratio turn out when ATGTAACGGC was run?
**A.** 1.01

**Q.** Which switch fluorescence ratio does the source give for ATGTAAGTT here?
**A.** 0.958

**Q.** ATGTACAGAC was tested. Which switch fluorescence ratio did it give?
**A.** 1.24

**Q.** With ATGTAGAAT as the sequence, how does the switch fluorescence ratio read?
**A.** 1.02

**Q.** ATGTAGATAC was tested. Which switch fluorescence ratio did it give?
**A.** 1.16

**Q.** For ATGTAGTAAT, which switch fluorescence ratio is on record?
**A.** 1.01

**Q.** Which switch fluorescence ratio does the source give for ATGTAGTCTG here?
**A.** 0.97

**Q.** With ATGTATAGCT as the sequence, how does the switch fluorescence ratio read?
**A.** 1.06

**Q.** Which switch fluorescence ratio does the source give for ATGTATGAAG here?
**A.** 0.975

**Q.** How did the switch fluorescence ratio turn out when ATGTATGGGG was run?
**A.** 0.927

**Q.** ATGTCACGGA was tested. Which switch fluorescence ratio did it give?
**A.** 1.04

**Q.** Which switch fluorescence ratio does the source give for ATGTCACGGG here?
**A.** 1.03

**Q.** How did the switch fluorescence ratio turn out when ATGTCAGACG was run?
**A.** 1.02

**Q.** Which switch fluorescence ratio does the source give for ATGTCATC here?
**A.** 1

**Q.** How did the switch fluorescence ratio turn out when ATGTCCACGT was run?
**A.** 0.975

**Q.** Which switch fluorescence ratio does the source give for ATGTCGAGCT here?
**A.** 0.967

**Q.** Which switch fluorescence ratio does the source give for ATGTCGATCG here?
**A.** 1.02

**Q.** ATGTCGCGGC was tested. Which switch fluorescence ratio did it give?
**A.** 0.987

**Q.** ATGTCTTTTT was tested. Which switch fluorescence ratio did it give?
**A.** 0.939

**Q.** With ATGTGAGCGA as the sequence, how does the switch fluorescence ratio read?
**A.** 1.03

**Q.** How did the switch fluorescence ratio turn out when ATGTGAGGAA was run?
**A.** 0.982

**Q.** For ATGTGATATA, which switch fluorescence ratio is on record?
**A.** 0.971

**Q.** Which switch fluorescence ratio does the source give for ATGTGCCAGC here?
**A.** 1.01

**Q.** With ATGTGCCTTC as the sequence, how does the switch fluorescence ratio read?
**A.** 1.03

**Q.** Which switch fluorescence ratio does the source give for ATGTGCTAAC here?
**A.** 0.961

**Q.** For ATGTGCTTCT, which switch fluorescence ratio is on record?
**A.** 0.972

**Q.** ATGTGTAGAA was tested. Which switch fluorescence ratio did it give?
**A.** 0.999

**Q.** How did the switch fluorescence ratio turn out when ATGTTCATGA was run?
**A.** 0.989

**Q.** How did the switch fluorescence ratio turn out when ATGTTGACAT was run?
**A.** 1.01

**Q.** With ATGTTGGTC as the sequence, how does the switch fluorescence ratio read?
**A.** 0.991

**Q.** How did the switch fluorescence ratio turn out when ATGTTTAATG was run?
**A.** 0.96

**Q.** Which switch fluorescence ratio does the source give for ATTAAACTTA here?
**A.** 1.01

**Q.** How did the switch fluorescence ratio turn out when ATTAAATGCC was run?
**A.** 1.03

**Q.** ATTAACAAAA was tested. Which switch fluorescence ratio did it give?
**A.** 0.91

**Q.** With ATTAACTAGG as the sequence, how does the switch fluorescence ratio read?
**A.** 0.984

**Q.** For ATTAAGGAT, which switch fluorescence ratio is on record?
**A.** 1.03

**Q.** ATTAAGGATC was tested. Which switch fluorescence ratio did it give?
**A.** 1.02

**Q.** For ATTAAGTGCT, which switch fluorescence ratio is on record?
**A.** 1.06

**Q.** Which switch fluorescence ratio does the source give for ATTAATAACG here?
**A.** 1

**Q.** How did the switch fluorescence ratio turn out when ATTAATACA was run?
**A.** 0.981

**Q.** How did the switch fluorescence ratio turn out when ATTAATTGAG was run?
**A.** 1.02

**Q.** For ATTACACCAG, which switch fluorescence ratio is on record?
**A.** 1.11

**Q.** ATTACCCAAC was tested. Which switch fluorescence ratio did it give?
**A.** 1.2

**Q.** With ATTACGACTT as the sequence, how does the switch fluorescence ratio read?
**A.** 1.05

**Q.** ATTACTCTG was tested. Which switch fluorescence ratio did it give?
**A.** 1.09

**Q.** How did the switch fluorescence ratio turn out when ATTACTGAAG was run?
**A.** 1.05

**Q.** For ATTAGATCTT, which switch fluorescence ratio is on record?
**A.** 0.987

**Q.** With ATTAGATGG as the sequence, how does the switch fluorescence ratio read?
**A.** 1.02

**Q.** For ATTAGCAAGC, which switch fluorescence ratio is on record?
**A.** 2.24

**Q.** ATTAGCCAAC was tested. Which switch fluorescence ratio did it give?
**A.** 1.05

**Q.** With ATTAGCCTCC as the sequence, how does the switch fluorescence ratio read?
**A.** 1.15

**Q.** Which switch fluorescence ratio does the source give for ATTAGGGGT here?
**A.** 1.05

**Q.** ATTAGGTCAC was tested. Which switch fluorescence ratio did it give?
**A.** 1.01

**Q.** ATTAGTTGT was tested. Which switch fluorescence ratio did it give?
**A.** 0.98

**Q.** For ATTATAACGT, which switch fluorescence ratio is on record?
**A.** 1.02

**Q.** For ATTATAGTTA, which switch fluorescence ratio is on record?
**A.** 0.984

**Q.** With ATTATATGT as the sequence, how does the switch fluorescence ratio read?
**A.** 0.978

**Q.** For ATTATCTATC, which switch fluorescence ratio is on record?
**A.** 1.01

**Q.** Which switch fluorescence ratio does the source give for ATTATCTCA here?
**A.** 1

**Q.** Which switch fluorescence ratio does the source give for ATTATGACGC here?
**A.** 1.08

**Q.** ATTATGCATT was tested. Which switch fluorescence ratio did it give?
**A.** 1.35

**Q.** With ATTATGCGC as the sequence, how does the switch fluorescence ratio read?
**A.** 0.99

**Q.** How did the switch fluorescence ratio turn out when ATTATGCTT was run?
**A.** 0.984

**Q.** How did the switch fluorescence ratio turn out when ATTATTGTT was run?
**A.** 0.987

**Q.** For ATTCAAGTAA, which switch fluorescence ratio is on record?
**A.** 1.07

**Q.** For ATTCAATATA, which switch fluorescence ratio is on record?
**A.** 1.02

**Q.** How did the switch fluorescence ratio turn out when ATTCACCTGA was run?
**A.** 1.07

**Q.** For ATTCACGAGT, which switch fluorescence ratio is on record?
**A.** 1.06

**Q.** How did the switch fluorescence ratio turn out when ATTCAGATC was run?
**A.** 0.964

**Q.** ATTCAGCGAG was tested. Which switch fluorescence ratio did it give?
**A.** 0.966

**Q.** Which switch fluorescence ratio does the source give for ATTCAGGACT here?
**A.** 0.991

**Q.** For ATTCATGGTA, which switch fluorescence ratio is on record?
**A.** 0.977

**Q.** ATTCCAATCC was tested. Which switch fluorescence ratio did it give?
**A.** 1.06

**Q.** For ATTCCACCAT, which switch fluorescence ratio is on record?
**A.** 1.09

**Q.** For ATTCCCTTAC, which switch fluorescence ratio is on record?
**A.** 1.53

**Q.** With ATTCCGAATC as the sequence, how does the switch fluorescence ratio read?
**A.** 1.53

**Q.** How did the switch fluorescence ratio turn out when ATTCCGAGGA was run?
**A.** 0.994

**Q.** Which switch fluorescence ratio does the source give for ATTCCTTGC here?
**A.** 1.53

**Q.** ATTCGATGCT was tested. Which switch fluorescence ratio did it give?
**A.** 0.992

**Q.** For ATTCGCTCGA, which switch fluorescence ratio is on record?
**A.** 1.03

**Q.** ATTCGGGCTG was tested. Which switch fluorescence ratio did it give?
**A.** 1.05

**Q.** Which switch fluorescence ratio does the source give for ATTCGGGTGC here?
**A.** 1.01

**Q.** Which switch fluorescence ratio does the source give for ATTCGTAATG here?
**A.** 1.04

**Q.** How did the switch fluorescence ratio turn out when ATTCGTGGAA was run?
**A.** 1.01

**Q.** ATTCGTTAC was tested. Which switch fluorescence ratio did it give?
**A.** 1.12

**Q.** ATTCGTTATC was tested. Which switch fluorescence ratio did it give?
**A.** 0.976

**Q.** With ATTCTATTGA as the sequence, how does the switch fluorescence ratio read?
**A.** 0.974

**Q.** For ATTCTCTGGA, which switch fluorescence ratio is on record?
**A.** 0.957

**Q.** With ATTCTGAACG as the sequence, how does the switch fluorescence ratio read?
**A.** 1.08

**Q.** For ATTCTGACTT, which switch fluorescence ratio is on record?
**A.** 0.993

**Q.** How did the switch fluorescence ratio turn out when ATTCTGGCCA was run?
**A.** 0.981
